Results taken from PMC4336329 (PLoS ONE, 2015).
Among all 310,000 compounds or so, about 2,200 (0.71%) showed an effect of 50% or more. Effects have a minus sign here. The list shows a part of the results.

Target: human ether-à-go-go-related gene (hERG) potassium channel (human, UniProt Q12809)
Test: primary screen, population patch clamp on CHO cells stably expressing hERG

Sequence of human ether-à-go-go-related gene (hERG) potassium channel (Q12809 whole entry, looked up): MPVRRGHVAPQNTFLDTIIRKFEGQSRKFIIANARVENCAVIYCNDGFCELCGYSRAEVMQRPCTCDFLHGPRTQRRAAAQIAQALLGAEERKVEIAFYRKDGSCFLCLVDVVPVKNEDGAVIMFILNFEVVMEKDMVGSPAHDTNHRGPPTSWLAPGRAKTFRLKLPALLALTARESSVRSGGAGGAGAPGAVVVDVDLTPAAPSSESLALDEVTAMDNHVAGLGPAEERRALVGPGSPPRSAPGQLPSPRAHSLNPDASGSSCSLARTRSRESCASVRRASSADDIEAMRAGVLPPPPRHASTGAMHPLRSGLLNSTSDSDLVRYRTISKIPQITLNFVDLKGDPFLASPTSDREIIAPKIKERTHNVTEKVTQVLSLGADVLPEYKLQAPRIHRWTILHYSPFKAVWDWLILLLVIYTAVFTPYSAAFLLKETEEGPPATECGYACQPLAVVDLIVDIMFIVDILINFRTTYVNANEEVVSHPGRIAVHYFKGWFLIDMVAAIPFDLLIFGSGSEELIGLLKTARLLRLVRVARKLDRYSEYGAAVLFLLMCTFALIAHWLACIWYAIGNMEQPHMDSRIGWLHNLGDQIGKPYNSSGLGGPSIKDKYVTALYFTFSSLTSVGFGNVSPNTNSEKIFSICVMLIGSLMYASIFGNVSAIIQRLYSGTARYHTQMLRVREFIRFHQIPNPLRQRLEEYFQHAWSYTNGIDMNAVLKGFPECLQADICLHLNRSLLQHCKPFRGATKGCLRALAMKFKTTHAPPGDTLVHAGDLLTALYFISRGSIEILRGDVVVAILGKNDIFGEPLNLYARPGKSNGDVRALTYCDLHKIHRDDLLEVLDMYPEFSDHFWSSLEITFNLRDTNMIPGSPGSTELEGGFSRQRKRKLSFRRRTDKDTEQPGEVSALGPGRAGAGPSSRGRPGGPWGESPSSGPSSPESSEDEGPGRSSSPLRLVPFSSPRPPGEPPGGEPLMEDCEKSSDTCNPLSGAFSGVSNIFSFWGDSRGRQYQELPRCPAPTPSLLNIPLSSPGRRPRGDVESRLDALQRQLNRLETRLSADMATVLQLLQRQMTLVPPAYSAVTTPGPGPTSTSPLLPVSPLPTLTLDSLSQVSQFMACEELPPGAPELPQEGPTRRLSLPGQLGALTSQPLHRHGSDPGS

SMILES	hERG current change (%, negative = inhibition) at 1uM
O=C(CCc1nc(-c2ccccc2F)no1)NCCN1CCc2ccccc2C1	-17.1%
N#C/C(=C/c1ccc(F)cc1)C(N)=S	21.9%
CCOC(=O)c1c(S(=O)(=O)Nc2ccc(F)cc2C)c(C)n(C)c1C	10.4%
CCOC(=O)c1sc(NC(=S)NC(=O)c2ccccc2)c(C(=O)OCC)c1C	14.1%
Cc1cc(NC(=O)CNCC(c2ccccc2)N(C)C)c([N+](=O)[O-])cc1C (stereo not drawn)	-1.9%
Cc1ccccc1-n1c(=O)cc(N2CCc3ccccc3C2)[nH]c1=O	-17.1%
Cc1ccccc1OCC(=O)Nc1ccccc1-c1ccccc1	7.98%
c1ccc2[nH]cnc2c1	8.56%
CCOc1ccccc1NC(=O)C(c1ccccc1)N1CCN(C(=O)c2ccco2)CC1 (stereo not drawn)	-12.1%
CC(C)C(c1nnnn1C1CCCCC1)N1CCOCC1 (stereo not drawn)	5.38%
COc1ccc(-c2cc(C(F)(F)F)nc(SCC(=O)N3CCOCC3)n2)cc1OC	-10.7%
CCOC(=O)CCC(=O)N1CCOCCN(C(=O)CCC(=O)OCC)CCOCC1	16.5%
CC(C)(C)n1cnc2cc(NS(=O)(=O)c3ccccc3)ccc21	2.3%
CCn1c(COc2ccccc2OC)nnc1SCC(=O)NC1CCCC1	-4.68%
CCC(C)Sc1cccc(-c2nc3ccc(Cl)cn3c2NCc2ccccc2)c1.O=C(O)C(F)(F)F (stereo not drawn)	9.74%
O=C(NCCCCNC(=O)c1ccccc1Cl)c1ccccc1Cl	9.68%
COc1cc(/C=N/NC2=NCCCCC2)ccc1O.Cl	10.8%
O=C(Nc1ccc(Cl)cc1C(=O)NCC1CCCO1)c1ccc(Cl)cc1Cl (stereo not drawn)	11.8%
Cc1cccc(C(=O)NCC(=O)NNC(=O)c2ccccc2O)c1	8.96%
COCC(COS(N)(=O)=O)C(C)C (stereo not drawn)	7.19%
COc1ccc(CCC(=O)NNC(=O)c2cc(Cl)ccc2OC)cc1OC	3.48%
CC(C)CCNC(=O)C1CCN(S(=O)(=O)c2ccc(-n3cnnn3)cc2)CC1	10.1%
COc1ccc(CNC(=O)c2cnc3cc(C)ccn3c2=O)cc1	4.63%
O=C(CC1NCCNC1=O)Nc1ccc(Oc2ccccc2)cc1 (stereo not drawn)	20.8%

SMILES	hERG current change (%, negative = inhibition) at 1uM
O=C(COC(=O)c1cccs1)c1ccccc1	11.1%
Cc1ccccc1NCCC(=O)Nc1ccc(Cl)cc1	2.25%
COC(=O)[C@H](CCSC)NC(=O)N1CCC(C)CC1	4.82%
CCn1c(SCC(=O)NCC2CCCO2)nc2c([nH]c3ccccc32)c1=O (stereo not drawn)	8.75%
O=C(O)CC1SC(=Nc2cccc(C(F)(F)F)c2)NC1=O (stereo not drawn)	9.22%
CCOC(=O)C1=C(Cn2cnc3ccccc32)NC(=O)NC1c1ccc(OC)cc1 (stereo not drawn)	-9.03%
COc1cc(N(C(=O)Cc2cccs2)C(C(=O)NC2CCCCC2)c2cccc(OC)c2OC)ccc1-n1cnnn1 (stereo not drawn)	8.24%
CCN1C(=O)N[C@@H](c2cccc(C(F)(F)F)c2)[C@@H](C(=O)OC)[C@H]1C	-0.168%
O=C(CSc1ccc2ccccc2c1)NC1CCCc2ccccc21 (stereo not drawn)	10.3%
COc1cc(C(=O)Oc2ccccc2)ccc1OCc1c(C)noc1C	16.2%
CC(C)(C)OC(=O)N1CCC(CNC(=O)c2cccs2)CC1	11.1%
Cl.OC(CNCC#Cc1ccccc1)c1ccccc1 (stereo not drawn)	13.3%
Cc1cc(=O)[nH]c(-n2[nH]c(C)cc2=O)n1	4.95%
CCN1CCc2nc(NC(=O)c3ccc(S(=O)(=O)N(C)C)cc3)sc2C1	5%
Cc1ccc(-c2nnc(-c3ccccc3)c(-c3ccccc3)n2)cc1	7.01%
Cc1cccc(NS(=O)(=O)c2ccc3c(c2)OCCO3)c1	8.22%
CC(=O)Nc1ccc(S(=O)(=O)N(C)CC(=O)Nc2cccc(S(=O)(=O)N3CCCC3)c2)cc1	7.31%
O=C(NCCCN1CCOCC1)c1c(F)cccc1F	1.05%
Cc1ccc(C)c(NS(=O)(=O)c2c(C)ccc3nsnc23)c1	0.605%
CCOc1ccc(N2C(=O)CC(N3CCN(C4CCc5ccccc5C4)CC3)C2=O)cc1 (stereo not drawn)	-65.5%
O=C(O)/C=C/c1ccc([N+](=O)[O-])o1	11.1%
COC(=O)Cn1cc(C(=O)OC)cc(Br)c1=O	1.56%
COc1cccc(-n2c(=O)[nH]cc(C(=O)Nc3ccc(NC(C)=O)cc3)c2=O)c1	8.55%
Cc1csc2ncc(C(=O)N3CCc4ccccc43)c(=O)n12	14.6%

SMILES	hERG current change (%, negative = inhibition) at 1uM
CCOc1ccc(C(=O)CC(C(=O)O)N2CCN(Cc3ccccc3)CC2)cc1 (stereo not drawn)	14.6%
Cn1c(SCC(=O)N2CCN(S(=O)(=O)c3ccc(Cl)cc3)CC2)nc2ccccc21	11.2%
C=CCSc1nnc(NC(=O)Cn2cnc3c2c(=O)n(C)c(=O)n3C)s1	12.8%
COc1ccc(NC(=O)Cc2nnc(SCC(=O)c3ccc(F)cc3)n2C)cc1	16.4%
Cc1csc(SCC(=O)Nc2cccc(S(=O)(=O)N3CCCC3)c2)n1	-2.37%
Clc1ccc(/C=N/NC2=Nc3cccc4cccc2c34)cc1	4.72%
N#Cc1ccc(COC(=O)CCc2c[nH]c3ccccc23)cc1	3.53%
CC(C)C(=O)Nc1cccc(NC(=S)NC(=O)c2ccc3c(c2)OCO3)c1	10.6%
O=C(NC(=S)NC1C2CC3CC(C2)CC1C3)c1ccccc1 (stereo not drawn)	10.1%
CCOC(=O)N1CCN(C(=O)COC(=O)Cc2ccc(Cl)cc2)CC1	-3.36%
COc1cc(/C=C(\C#N)c2nc3ccccc3o2)ccc1O	4.77%
COc1ccc(C(=O)/C=C2/C(=O)Nc3ccccc32)c(OC)c1	14.2%
N#Cc1cc(-c2ccccc2)nc(N2CCNCC2)n1	8.63%
O=C1/C(=C/c2ccc(N3CCOCC3)o2)SC(=Nc2ccccc2)N1CCc1c[nH]c2ccccc12	6.23%
COC(=O)c1ccsc1NC(=O)C1=COCCO1	16.2%
O=C1c2ccccc2CN2C(=O)c3ccccc3CN12	26.3%
CCOC1(OCC)C(c2ccc(N)cc2)C(C#N)(C#N)C1(OCC)OCC (stereo not drawn)	13.5%
Cc1ccc(C(=O)C[n+]2cc(Br)cc(Br)c2)cc1[N+](=O)[O-].[Br-]	4.51%
CN(C)C(CNC(=S)Nc1ccccc1Cl)c1cccnc1 (stereo not drawn)	11.7%
Cc1csc(NC(=O)Cn2cnnn2)n1	10.6%
Cc1c(-n2cc(C(=O)c3cc(F)ccc3O)cc(C#N)c2=O)c(=O)n(-c2ccccc2)n1C	2.47%
CC(C)CSc1nc2ccccc2n1CC(N)=O	8.91%
CC(=O)Nc1nnc(-c2ccco2)o1	6.48%
O=C(Oc1coc(CSc2ncccn2)cc1=O)c1ccc(Br)o1	11.6%

SMILES	hERG current change (%, negative = inhibition) at 1uM
c1coc(CNC2CCCCCCC2)c1	13.1%
Cc1cc(NC(=O)c2cccc(N3C(=O)CCC3=O)c2)no1	4.32%
COc1cccc(C(=O)N2CCC(n3nccc3NC(=O)C3CCOC3)CC2)c1 (stereo not drawn)	-6.17%
Cc1ccc2c(c1)nc(NCCCO)n2C	11.9%
COc1ccc(NC(=O)CSc2ccc(-c3ccco3)nn2)cc1OC	1.7%
C=CCOc1ccccc1CN1CCC(CO)(CCOc2ccccc2)CC1	-61.4%
CCC(=O)Nc1cc(C(=O)OCC(=O)c2ccccc2)ccc1C	10.2%
O=C(COc1ccc2c(c1)OCO2)Nc1ccccc1C(F)(F)F	9.93%
COc1cc(NC(=O)c2cc(-c3ccc4c(c3)OCO4)on2)cc(OC)c1OC	7.02%
CCOC(=O)Cc1csc(NC(=O)c2cc(-c3ccncc3)nc3ccccc23)n1	9.13%
CCOCCCNC(=O)C(c1ccc(C)cc1)N1CCOCC1 (stereo not drawn)	13%
Cc1cc(Br)ccc1NC(=O)C(C)c1ccc([N+](=O)[O-])cc1 (stereo not drawn)	-45.2%
CCC(OC(=O)c1cccs1)C(=O)NCc1ccco1 (stereo not drawn)	8.2%
O=c1c2c3c(sc2nc(N2CCNCC2)n1-c1cccc(Cl)c1)CCCCC3	10.3%
Nc1nncn1C(=O)CCc1ccccc1	-2.61%
Br.Nc1ccc(OCC(O)C[n+]2ccc(CCS(=O)(=O)[O-])cc2)cc1 (stereo not drawn)	6.98%
Cc1ccccc1NC(=S)N(CCc1c(C)[nH]c2ccc(F)cc12)Cc1cccnc1	13%
CCN(CC(=O)Nc1ccc2c(c1)OCCO2)C(=O)C1CCCCC1	1.8%
Cn1nnnc1SCC(=O)NCCc1ccc(Cl)cc1	4.86%
COc1ccc(Nc2ncnc3sc(C)cc23)c(OC)c1.Cl	10.1%
CCCc1cc2c(=O)c(-c3ccccn3)c(C)oc2cc1O	8.84%
